The supplement of paper PMC3334620
In all, about 33,000 sequences were measured (“E-score (-0.5 to 0.5)”: median about -0.035, highest 2% from about 0.35 on). The list shows a part of the results.

biological target: T1, Pdr3 (UniProt P33200); assay: PBM E-score (8-mer binding enrichment) (E-score (-0.5 to 0.5)); higher = stronger / more preferred TF binding; most listed sequences are background and not binding sites; conditions: protein concentration: 200 nM; construct: GST-full length
T1 sequence: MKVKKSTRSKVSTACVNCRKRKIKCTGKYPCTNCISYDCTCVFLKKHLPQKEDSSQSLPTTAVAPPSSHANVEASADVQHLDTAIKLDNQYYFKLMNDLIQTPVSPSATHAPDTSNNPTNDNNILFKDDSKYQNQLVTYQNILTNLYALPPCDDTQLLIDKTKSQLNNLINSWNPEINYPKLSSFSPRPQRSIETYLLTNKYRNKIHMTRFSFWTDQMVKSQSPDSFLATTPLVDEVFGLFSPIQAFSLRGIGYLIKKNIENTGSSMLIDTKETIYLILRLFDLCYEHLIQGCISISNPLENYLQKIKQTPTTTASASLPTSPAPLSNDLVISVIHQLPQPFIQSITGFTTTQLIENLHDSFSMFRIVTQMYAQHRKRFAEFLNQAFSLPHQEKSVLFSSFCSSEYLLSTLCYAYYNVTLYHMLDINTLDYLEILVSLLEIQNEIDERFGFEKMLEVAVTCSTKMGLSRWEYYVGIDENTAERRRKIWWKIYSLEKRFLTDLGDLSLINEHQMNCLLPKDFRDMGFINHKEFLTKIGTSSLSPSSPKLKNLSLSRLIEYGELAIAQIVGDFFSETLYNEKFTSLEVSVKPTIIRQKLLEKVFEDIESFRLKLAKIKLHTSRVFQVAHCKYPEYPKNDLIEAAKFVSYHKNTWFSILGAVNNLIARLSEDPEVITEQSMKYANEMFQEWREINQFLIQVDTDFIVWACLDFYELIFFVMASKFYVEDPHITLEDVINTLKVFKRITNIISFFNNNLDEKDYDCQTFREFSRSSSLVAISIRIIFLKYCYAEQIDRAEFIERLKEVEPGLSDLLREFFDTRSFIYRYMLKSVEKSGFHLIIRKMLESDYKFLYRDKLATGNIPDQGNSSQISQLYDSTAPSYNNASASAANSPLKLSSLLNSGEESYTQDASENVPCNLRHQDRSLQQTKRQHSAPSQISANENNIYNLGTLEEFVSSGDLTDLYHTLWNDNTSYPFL
Procedure: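 Universal 'all 10-mer' protein binding microarrays (Agilent AMADID 015681) probed with GST-tagged S. cerevisiae TFs (full-length or DBD) made by in vitro transcription/translation (PURExpress), about 100-200 nM. Bound TF was detected with fluorescent anti-GST. Each ungapped 8-mer (which stands for itself and its reverse complement) is scored by the PBM enrichment score (E-score), a modified Wilcoxon-Mann-Whitney statistic from -0.5 to +0.5, computed with the Universal PBM Analysis Suite. Scale: above 0.35 generally sequence-specific binding.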

Sequence	PBM E-score
CCCAGTGC	0.0503
GATCGAAC	-0.0649
CAAGTTTA	-0.122
GCGGTTAC	0.0864
GTTTAGTA	-0.125
AAGCTCTG	-0.25
CTAAGCAA	-0.345
ACGAATTG	-0.132
GTTTTGCA	-0.113
GAGCTTCA	-0.0353
AGTTTCTG	-0.0357
AGCTCTCA	0.152
CGAACGAA	0.0784
AAGACATT	-0.0843
GATCGGTA	0.146
ACGATCTG	-0.213
AGCAGGGC	-0.0274
GCACCGCC	0.108
GCATGAAA	-0.13
CGCCCTGA	0.0732
CTGGTATC	-0.0675
GAGCTCCA	0.0677
ATAATTAA	0.16
AGCATCAC	-0.186
ACAAGTGT	-0.124

Sequence	PBM E-score
ACATGGAG	-0.133
CTCAGGAC	-0.064
AACTACAT	-0.104
ACTTCTAT	-0.19
CCTCCAGG	-0.269
ATGCACGA	-0.118
CACAAACC	-0.16
GCCAAAAA	0.0135
ATAAACAC	-0.122
CGCCGATC	0.206
TGGGACAA	-0.0135
ACGAACAG	0.0627
ACATTCCT	-0.0606
CATCTCTA	-0.165
AAGAACCG	0.105
GACCGCAA	0.155
GCGGTTCA	0.0936
GCAACCTA	-0.18
CCCCCAAG	-0.203
AGCCGAAC	0.0822
CCAGCACG	0.0341
ACCTGTCG	-0.0352
CGTCGAAG	-0.0857
CGTCCATC	0.153
CGAAGATC	-0.147

Sequence	PBM E-score
AGTGGTAA	-0.155
ATTGAGAA	-0.0251
ACCGTCGA	-0.129
GGCGTAAA	-0.0237
TGGGCCCA	0.176
TAACCAAA	-0.0915
AAAAGGCT	-0.147
ACTAGGTA	-0.0552
CCGACATA	0.131
TGACTAAA	-0.156
CTAAATAC	0.0285
CTTGATGA	0.0114
CAGCCACG	0.145
ACAAGGCA	-0.186
ACTACCTG	-0.0227
GAGTGGCA	-0.0517
AGTCTCAA	-0.124
GTACACAC	0.0147
AGAAATCC	0.0945
AGGGATTA	-0.132
AATCCGTC	0.314
CGAAGAAG	-0.0495
GAACGGGA	0.245
ACCCAAGC	-0.142
CCTGAGCA	-0.0984

Sequence	PBM E-score
ACTACCAC	-0.132
GTGGCGGA	0.271
CCTTGGAA	-0.0209
AGGATACA	-0.187
AAACTCTT	-0.264
GACAAGGA	-0.0759
CTAGTGCC	-0.109
ACACCGCG	0.261
CCTGTGAG	-0.131
GAACCGGC	0.247
CCTTATCA	-0.143
ACATTCTC	-0.143
ACCCAGAC	0.0736
CGTGCGGA	0.177
AATCCGTG	0.237
CAGGAGAA	0.036
GGTACACA	-0.0852
CACAGATG	-0.238
CTAGGTTC	0.154
CAGGGCAG	-0.182
AGTATTCG	0.0375
CAAAGTTC	0.12
CTTATTAA	0.0464
CGGCGGCC	0.144
TACTAACA	-0.00381

Sequence	PBM E-score
CATTGTGC	-0.0434
GCCCATCC	0.0505
AATCGGCT	0.243
AAACATCG	-0.0752
CATAAAAA	-0.121
CCTAAATC	0.0907
GGATTCAA	-0.075
CAGCATAA	-0.0299
ACATTGCT	-0.252
CGGTCCTA	-0.122
TGGGGAAA	0.132
AATTCTAA	-0.0663
CTTGTTGA	-0.0347
AGTAGACT	-0.231
GAATACTA	0.183
ATAGGTTA	-0.175
GACGTTCC	0.185
TAGCCACA	-0.221
TCTTCCAA	0.00234
GACGAGGC	-0.0348
AACACCTT	-0.0602
CTACCTTA	-0.0625
TACAGGAA	0.0679
GAGTTCTA	-0.129
ATGATTCG	0.127

Sequence	PBM E-score
AGCGTGAT	0.00665
GTACGTCA	-0.2
CCTTTCAC	-0.109
ATTGGCCG	0.276
CAACGCTC	-0.249
CAGAGGAG	-0.195
CCTTGGCC	-0.182
GCATATTA	0.0652
GCGTTTCC	0.315
AGTCGTAG	-0.197
AGGCGAAG	-0.137
CCGCCCAA	0.0443
ATTTGCAG	-0.0031
GCGTTCCA	-0.088
CAGACGCC	-0.0932
GCGCGGGA	0.312
GCGCCACC	-0.126
ATTTCATC	0.119
CAGGAATC	0.0807
TATAATGA	0.0163
AGAACCAG	-0.0734
ATTAAGTG	0.00402
GGTTCAAA	0.0199
CGCACCAG	0.133
CGTATCCC	-0.0169

Sequence	PBM E-score
GTTTTCTA	-0.0574
ATAATCCG	0.258
AGTACTTC	0.175
GCCCTGTA	-0.00835
GAAAAAGA	-0.051
GCAAAAAA	0.0339
ATTCCGGA	0.481
GCGTTACA	-0.19
ATCTGTGG	-0.162
GCAGCAGA	-0.0786
AATGTCCC	0.152
AGACCGGC	-0.0301
AATCCGAA	0.0894
GCATTTCA	0.017
GATATGGA	0.231
AGGTTCGG	0.156
ATACATTA	0.0213
AGGCGACA	-0.148
ATCCGTGG	0.428
AAGCTGGC	-0.11
CAGGGAAA	0.0962
GCGACCAC	0.132
